Results are given in words; binding and its absence hold for the method and conditions named. In cells and extracts the contact can be indirect. Some results given as binding are weak or reduced against the parent protein; the word gives no strength. Sequences can lack the tags named with a protein.

Chains of the proteins cited; added tags and fusions are not shown.
UniProt O75175: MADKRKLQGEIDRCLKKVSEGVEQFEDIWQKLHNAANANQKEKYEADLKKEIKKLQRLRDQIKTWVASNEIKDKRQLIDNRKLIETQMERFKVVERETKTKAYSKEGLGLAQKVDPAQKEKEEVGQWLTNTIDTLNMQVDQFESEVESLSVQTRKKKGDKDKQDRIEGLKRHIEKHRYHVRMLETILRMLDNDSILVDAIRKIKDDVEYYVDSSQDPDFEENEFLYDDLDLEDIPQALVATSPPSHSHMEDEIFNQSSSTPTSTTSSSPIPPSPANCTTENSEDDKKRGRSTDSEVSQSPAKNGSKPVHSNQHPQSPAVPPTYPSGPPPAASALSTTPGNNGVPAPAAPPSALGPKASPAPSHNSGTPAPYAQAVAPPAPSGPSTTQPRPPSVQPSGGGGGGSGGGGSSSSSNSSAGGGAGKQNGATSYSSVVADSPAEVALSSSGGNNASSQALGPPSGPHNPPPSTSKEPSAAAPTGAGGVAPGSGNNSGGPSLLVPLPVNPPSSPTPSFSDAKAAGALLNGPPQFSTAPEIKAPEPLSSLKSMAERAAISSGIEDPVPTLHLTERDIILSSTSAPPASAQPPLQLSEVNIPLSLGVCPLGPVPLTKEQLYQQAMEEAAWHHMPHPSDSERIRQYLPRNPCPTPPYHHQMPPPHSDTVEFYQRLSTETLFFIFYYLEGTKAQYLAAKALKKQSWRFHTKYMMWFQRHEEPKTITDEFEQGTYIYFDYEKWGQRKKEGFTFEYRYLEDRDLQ
UniProt Q9NZN8: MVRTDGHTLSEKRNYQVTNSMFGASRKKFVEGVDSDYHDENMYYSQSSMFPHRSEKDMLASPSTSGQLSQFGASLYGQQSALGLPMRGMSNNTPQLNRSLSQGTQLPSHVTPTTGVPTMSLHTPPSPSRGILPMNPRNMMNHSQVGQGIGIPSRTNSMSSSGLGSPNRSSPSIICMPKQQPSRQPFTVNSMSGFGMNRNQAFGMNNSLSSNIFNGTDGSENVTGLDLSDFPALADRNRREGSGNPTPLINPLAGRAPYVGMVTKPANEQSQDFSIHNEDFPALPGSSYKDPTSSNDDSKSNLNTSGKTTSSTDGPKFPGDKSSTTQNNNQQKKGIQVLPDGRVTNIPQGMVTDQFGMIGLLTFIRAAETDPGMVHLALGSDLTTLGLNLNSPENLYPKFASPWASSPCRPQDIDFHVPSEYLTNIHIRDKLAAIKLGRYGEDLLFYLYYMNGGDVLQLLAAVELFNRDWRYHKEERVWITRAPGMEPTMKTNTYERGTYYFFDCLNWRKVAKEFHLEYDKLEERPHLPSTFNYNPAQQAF
UniProt A5YKK6: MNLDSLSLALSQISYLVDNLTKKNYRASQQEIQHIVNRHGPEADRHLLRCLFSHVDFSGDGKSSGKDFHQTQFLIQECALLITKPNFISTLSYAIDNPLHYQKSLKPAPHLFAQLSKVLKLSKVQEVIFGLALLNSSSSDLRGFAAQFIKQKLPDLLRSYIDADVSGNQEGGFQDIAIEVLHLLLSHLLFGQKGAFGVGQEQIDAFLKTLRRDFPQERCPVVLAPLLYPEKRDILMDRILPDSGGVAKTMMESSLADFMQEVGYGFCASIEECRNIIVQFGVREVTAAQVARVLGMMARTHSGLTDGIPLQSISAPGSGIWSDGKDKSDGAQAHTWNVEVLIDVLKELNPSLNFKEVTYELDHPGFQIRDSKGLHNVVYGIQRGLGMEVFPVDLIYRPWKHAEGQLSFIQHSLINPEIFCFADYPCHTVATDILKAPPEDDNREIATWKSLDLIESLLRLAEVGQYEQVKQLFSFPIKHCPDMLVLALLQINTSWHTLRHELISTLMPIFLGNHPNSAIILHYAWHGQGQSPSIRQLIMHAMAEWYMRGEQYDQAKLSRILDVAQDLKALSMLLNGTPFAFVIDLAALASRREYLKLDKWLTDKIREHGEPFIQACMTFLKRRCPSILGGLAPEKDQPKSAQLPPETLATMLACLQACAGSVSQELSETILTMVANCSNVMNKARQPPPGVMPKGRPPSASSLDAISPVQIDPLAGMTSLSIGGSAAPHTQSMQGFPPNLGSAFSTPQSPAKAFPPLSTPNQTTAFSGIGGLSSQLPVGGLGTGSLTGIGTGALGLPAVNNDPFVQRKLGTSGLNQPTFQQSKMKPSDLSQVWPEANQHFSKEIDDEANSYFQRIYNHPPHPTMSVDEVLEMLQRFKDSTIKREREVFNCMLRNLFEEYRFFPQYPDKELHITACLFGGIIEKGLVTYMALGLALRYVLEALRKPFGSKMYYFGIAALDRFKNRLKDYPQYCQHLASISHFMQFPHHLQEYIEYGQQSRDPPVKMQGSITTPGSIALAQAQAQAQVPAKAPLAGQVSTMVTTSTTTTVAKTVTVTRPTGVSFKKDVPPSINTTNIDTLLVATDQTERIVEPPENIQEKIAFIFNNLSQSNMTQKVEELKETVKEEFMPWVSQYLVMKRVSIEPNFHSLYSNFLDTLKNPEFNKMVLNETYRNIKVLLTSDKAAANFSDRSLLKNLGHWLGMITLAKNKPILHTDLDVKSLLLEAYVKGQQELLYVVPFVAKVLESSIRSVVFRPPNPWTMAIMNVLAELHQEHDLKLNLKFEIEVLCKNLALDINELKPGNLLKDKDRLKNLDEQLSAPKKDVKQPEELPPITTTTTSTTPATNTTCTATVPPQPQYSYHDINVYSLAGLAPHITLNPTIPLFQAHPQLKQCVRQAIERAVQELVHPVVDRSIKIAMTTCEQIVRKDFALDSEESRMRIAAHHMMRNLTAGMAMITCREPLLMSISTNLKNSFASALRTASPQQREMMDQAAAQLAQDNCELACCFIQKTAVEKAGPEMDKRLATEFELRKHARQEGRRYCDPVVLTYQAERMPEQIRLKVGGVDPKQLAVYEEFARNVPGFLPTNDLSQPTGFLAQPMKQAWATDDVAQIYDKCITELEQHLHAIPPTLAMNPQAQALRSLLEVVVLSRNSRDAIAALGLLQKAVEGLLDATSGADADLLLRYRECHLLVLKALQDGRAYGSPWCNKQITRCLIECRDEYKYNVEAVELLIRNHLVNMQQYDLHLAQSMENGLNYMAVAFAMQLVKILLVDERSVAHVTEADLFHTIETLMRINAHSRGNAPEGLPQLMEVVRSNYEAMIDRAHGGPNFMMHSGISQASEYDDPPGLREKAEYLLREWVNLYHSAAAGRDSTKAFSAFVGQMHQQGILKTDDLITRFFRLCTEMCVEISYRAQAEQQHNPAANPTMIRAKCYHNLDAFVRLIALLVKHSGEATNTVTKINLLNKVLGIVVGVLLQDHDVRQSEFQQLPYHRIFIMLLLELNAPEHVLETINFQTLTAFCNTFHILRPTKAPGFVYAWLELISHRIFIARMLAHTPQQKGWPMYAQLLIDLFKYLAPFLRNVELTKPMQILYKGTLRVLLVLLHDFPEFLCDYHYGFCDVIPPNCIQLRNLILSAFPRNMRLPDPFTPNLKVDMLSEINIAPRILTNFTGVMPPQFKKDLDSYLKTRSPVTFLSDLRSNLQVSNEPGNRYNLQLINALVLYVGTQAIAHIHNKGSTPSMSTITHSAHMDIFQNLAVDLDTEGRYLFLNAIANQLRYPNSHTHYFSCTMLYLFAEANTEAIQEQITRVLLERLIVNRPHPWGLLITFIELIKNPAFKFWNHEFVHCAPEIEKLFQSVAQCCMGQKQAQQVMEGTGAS

Among the data in PMC5303829, “A CAF40-binding motif facilitates recruitment of the CCR4-NOT complex to mRNAs targeted by Drosophila Roquin” (Nature Communications, 2017) are binding values, retold here.

Experiment [1] has as its target T1, V5-SBP-tagged Dm Roquin ΔCBM (Drosophila melanogaster) (UniProt Q9VV48).
T1 sequence: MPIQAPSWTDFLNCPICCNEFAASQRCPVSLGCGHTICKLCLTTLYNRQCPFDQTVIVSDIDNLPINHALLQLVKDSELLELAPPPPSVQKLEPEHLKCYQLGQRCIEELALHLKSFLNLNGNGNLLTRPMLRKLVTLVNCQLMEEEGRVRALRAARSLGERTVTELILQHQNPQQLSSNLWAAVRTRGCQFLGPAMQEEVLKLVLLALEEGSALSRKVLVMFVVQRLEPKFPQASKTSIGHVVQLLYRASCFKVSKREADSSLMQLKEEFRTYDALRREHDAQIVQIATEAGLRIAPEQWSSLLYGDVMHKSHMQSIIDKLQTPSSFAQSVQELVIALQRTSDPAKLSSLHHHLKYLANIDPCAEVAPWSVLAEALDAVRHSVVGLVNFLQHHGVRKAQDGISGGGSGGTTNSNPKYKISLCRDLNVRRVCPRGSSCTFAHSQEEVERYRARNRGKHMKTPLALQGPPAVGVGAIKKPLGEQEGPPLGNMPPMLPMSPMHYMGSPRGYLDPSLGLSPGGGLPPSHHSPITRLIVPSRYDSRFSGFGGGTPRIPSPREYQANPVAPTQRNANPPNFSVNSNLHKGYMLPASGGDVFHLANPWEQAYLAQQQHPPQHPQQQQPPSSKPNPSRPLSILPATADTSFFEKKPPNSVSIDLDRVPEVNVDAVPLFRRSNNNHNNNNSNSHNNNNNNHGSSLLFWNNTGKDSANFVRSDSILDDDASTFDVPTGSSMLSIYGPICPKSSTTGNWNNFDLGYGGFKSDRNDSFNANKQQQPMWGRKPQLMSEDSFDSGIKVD
Nature of the experiment: pull-down; SBP pulldown from lysates of HEK293T cells expressing V5-SBP-tagged Roquin proteins (bait); endogenous NOT1, NOT2 and NOT3 in the bound fractions detected by western blotting.

The target in experiment [2] is T2, V5-SBP-tagged Hs Roquin1 (full-length) (human) (UniProt Q5TC82).
T2 sequence: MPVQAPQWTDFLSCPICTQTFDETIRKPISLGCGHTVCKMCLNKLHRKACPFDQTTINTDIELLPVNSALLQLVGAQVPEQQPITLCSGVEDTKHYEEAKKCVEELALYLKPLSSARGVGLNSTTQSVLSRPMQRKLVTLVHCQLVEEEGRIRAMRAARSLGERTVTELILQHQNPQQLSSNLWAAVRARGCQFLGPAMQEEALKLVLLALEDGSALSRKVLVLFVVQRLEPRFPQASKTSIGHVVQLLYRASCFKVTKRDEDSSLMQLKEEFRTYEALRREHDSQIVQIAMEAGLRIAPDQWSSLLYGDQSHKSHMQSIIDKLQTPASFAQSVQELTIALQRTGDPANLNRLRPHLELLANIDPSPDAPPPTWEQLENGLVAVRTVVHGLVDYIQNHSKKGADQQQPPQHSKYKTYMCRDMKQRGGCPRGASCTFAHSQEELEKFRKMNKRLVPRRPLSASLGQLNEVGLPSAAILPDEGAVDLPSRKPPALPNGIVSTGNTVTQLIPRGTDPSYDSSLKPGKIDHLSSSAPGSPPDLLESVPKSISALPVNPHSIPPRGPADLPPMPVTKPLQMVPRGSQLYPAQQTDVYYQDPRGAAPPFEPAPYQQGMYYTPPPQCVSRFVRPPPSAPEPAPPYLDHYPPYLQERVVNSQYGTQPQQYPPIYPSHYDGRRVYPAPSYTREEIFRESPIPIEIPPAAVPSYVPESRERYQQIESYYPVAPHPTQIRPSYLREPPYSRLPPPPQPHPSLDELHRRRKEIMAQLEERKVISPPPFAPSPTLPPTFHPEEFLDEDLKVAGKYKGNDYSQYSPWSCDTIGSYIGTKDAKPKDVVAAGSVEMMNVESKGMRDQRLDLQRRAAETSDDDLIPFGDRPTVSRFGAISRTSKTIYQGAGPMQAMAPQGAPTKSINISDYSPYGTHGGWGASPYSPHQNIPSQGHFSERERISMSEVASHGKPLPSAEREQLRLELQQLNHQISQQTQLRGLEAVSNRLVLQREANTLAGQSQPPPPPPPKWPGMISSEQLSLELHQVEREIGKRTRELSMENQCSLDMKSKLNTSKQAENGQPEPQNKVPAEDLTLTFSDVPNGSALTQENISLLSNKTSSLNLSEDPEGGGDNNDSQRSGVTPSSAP
The description is as above.

For the substance “endogenous NOT3 (HEK293T) (from UniProt O75175 1-753)”, the binding entry is listed as “no binding” in experiment [1] and “binds” in experiment [2].
Regarding “endogenous NOT2 (HEK293T) (from UniProt Q9NZN8 1-540)”, the results for the binding result in experiment [1] and in experiment [2] were “no binding” and “binds”, respectively.
As to “endogenous NOT1 (HEK293T) (from UniProt A5YKK6 1-2376)”, the binding result is given as “no binding” in experiment [1] and “binds” in experiment [2].
